From US20160378909A1, “PROCESS FOR IDENTIFYING CULTURE CONDITIONS FOR A CELL OR ORGANISM” (GLAXOSMITHKLINE BIOLOGICALS SA, priority 2013, published 2016)
Where two headings read alike, the source gives them in different places. The name of at least one read-out is uncertain. Some of these results come from one statement about several compounds together.

System: Bordetella pertussis
Assay type: cell-based
Conditions: for Relative growth rate Average: first generation, relative to water controls; for Relative yield Average: max OD650 nm relative to water controls
Protocol: Cells were harvested by centrifugation, washed twice with NaCl 0.9% (w/v), and resuspended in fresh medium (de novo minimal CDM; see composition in Table 1) at a theoretical OD650 nm of 0.5, as calculated from the OD650 nm of the culture before harvest. 20 μl of this cell suspension were used to inoculate each well of a 96-well microtiter plate filled with 180 μl of de novo minimal CDM. Only the inner wells of the plate were used for cultures, in order to minimize evaporation, and two controls were included, in which the supplement solution was replaced with water.
The plate was then incubated for 7 days at 35° C. in a Biotek Synergy H1 reader with constant shaking, and growth was automatically monitored every 10 minutes as OD650 nm.
The relative growth yield and growth rate for each supplement was then averaged over the three independent repeats, and the standard deviation was calculated.

[1] = 20 mM in medium, listed as sodium pyruvate
[2] = 60 g/L in medium, listed as sucrose

With `CC(=O)C(=O)[O-].[Na+]` [Sodium pyruvate] as the molecule, how does the “Relative growth rate Average” value (2 mM in medium) read?
Its value is 77.63%.

And the “Relative yield Average” value (2 mM in medium)?
The value was 92.03%.

And the “Relative growth rate Average” value (20 mM in medium)?
Its value is 45.86%.

And the “Relative growth rate Average” value [1]?
The value was “less than 95.00%”.

And the “Relative yield Average” value (20 mM in medium)?
The value was 147.17%.

And the “Relative yield Average” value [1]?
Its value is “greater than 105.00%”.

Which results are given for `OC[C@H]1O[C@@](CO)(O[C@H]2O[C@H](CO)[C@@H](O)[C@H](O)[C@H]2O)[C@@H](O)[C@@H]1O` [Sucrose]?
Relative growth rate Average (6 g/L in medium): 95.27%; Relative yield Average (6 g/L in medium): 110.72%; Relative growth rate Average (60 g/L in medium): 58.15%; Relative growth rate Average [2]: less than 95.00%; Relative yield Average (60 g/L in medium): 193.22%; Relative yield Average [2]: greater than 105.00%

Which results are given for `O=c1cc[nH]c(=O)[nH]1` [Uracil]?
Relative growth rate Average (0.1 mg/L in medium): 98.35%; Relative yield Average (0.1 mg/L in medium): 97.30%

With `Nc1ccc(C(=O)O)cc1` [para-aminobenzoic acid] as the molecule, how does the “Relative yield Average” value (0.2 mg/L in medium) read?
Its value is 99.47%.

And the “Relative growth rate Average” value (2 mg/L in medium)?
Its value is 99.82%.

And the “Relative yield Average” value (2 mg/L in medium)?
Its value is 102.53%.

With Calcium pantothenate as the molecule, how does the “Relative yield Average” value (1 mg/L in medium, listed as calcium pantothenate) read?
Its value is “greater than 105.00%”.
